Among the data in the RNAGym collection of RNA variant scans (doi:10.7554/elife.90254) are self-cleavage values, retold here.

Read counts are not given, so values of variants with three or more changes are uncertain.

B1: LINE1-full (parent)
chain: UACGUAGGUGGUUUUCCCCUGAUAGUGCUAAGGGGGCCUGGAAGUUUGGACUGGGCAGAGCUCAACACAGCGUGGCAAAGUGGCUGUGGCUAGACUGCCUCUCUGGAUUCCUCGUCACUCAGCAGGGCAUCUCUGAGAGAAAUGCC

The variants in this data set derive from B1. The experiment in a line: self-cleavage, relative activity (ratio to wild type); higher = more cleavage; in vitro, sequencing; the parent is a self-cleaving ribozyme.
As to U13C U20C U115A U119C, the self-cleavage was found to be 2.3.
Turning to U13C U62G A77G U87A A138G, the self-cleavage stood at 0.22.
The same measure for U13C U62A A142G: 0.17; for U14C C63U U96A U115C: 0.03.
In the case of U13C U23C U96C A107G A140G, the self-cleavage stood at 0.
Take U14A A30G U81C U108C C113U: the self-cleavage was 0.57.
On to U14C C17A A30G U46A U87A A121G, for which the self-cleavage is 0.22.
To U14C A50U A57G U62C G86A belongs 0.07; to U14C A78G U102C G122A, 1.25.
For the variant U14C A24U U52A A141G, the self-cleavage worked out at 0.49.
Take U14A U39C U87A: the self-cleavage came to 0.03.
In the case of U14A A43C U46C A65G, the self-cleavage stood at 0.17.
To U13G C84U A142G belongs 0.18; to U14A A22G G40A U85A, 0.05.
Regarding U13C U104G G122C, the self-cleavage turned out to be 1.46.
To U14A G58A A59G U87C A117G belongs 0; to U14C A30G U96A, 0.28.
To U14C C56U U81C A136G belongs 0.35; to U14C A67G U130C A141G, 0.
Turning to U14C A79G A138G, the self-cleavage was 1.07.
Take U13C U39A U73A: the self-cleavage was 1.31.
Take U14A U115C U130C: the self-cleavage was 0.88.
To U14A U26C G60A A121U belongs 0.05; to U14C A22G U47A U143A, 1.02; to U14A U52C U112C, 1.23.
For the variant U13G A94G A124U A142U, the self-cleavage was determined as 0.
To U14A A65G A78G belongs 0; to U13C U52C A57G U62C G106C, 0.
To U14A G36C U130A belongs 0.82; to U13C U73G G97A, 0.12.
Take U13C U26A G41A: the self-cleavage is 0.99.
Take U13C U73A U96C A141G A142G: the self-cleavage was 0.23.
U13C U46C A64U: the self-cleavage was found to be 0.54.
In the case of U14A U102C A136G A141G, the self-cleavage turned out to be 0.97.
Turning to U13C U62C A117G A142G G144A, the self-cleavage turned out to be 0.08.
The same measure for U14C A22G A50G A69G A121U: 0.
For the variant U14C C17A C38A, the self-cleavage worked out at 1.25.
Take U13C U23C A57U A117G C131U A136G: the self-cleavage was 0.24.
As to U14A U15C U47C A117U, the self-cleavage was 0.91.
As for U14C A57G U81C G125U A129G A142G, the self-cleavage was 2.07.
The same measure for U14C A78G A94G: 0; for U14A A69G U108C: 0.31.
As to U14C A69G U96C A141G, the self-cleavage stood at 0.
In the case of U14C A57U A67U U104C, the self-cleavage turned out to be 0.
Turning to U14C A67U U91C U134A, the self-cleavage came out at 0.06.
As for U14C A57G C76U U100A U112C A136U, the self-cleavage is 0.35.
With U13C U39C A59U, the self-cleavage was determined as 0.66.
Regarding U13G A50G A77U A79G, the self-cleavage was 0.
On to U14A A124G A136G, for which the self-cleavage was found to be 1.38.
To U13C U45A A64U G106A U115C belongs 0.43.
Turning to U14C A22U A107G U109A U112C A142G, the self-cleavage was determined as 1.19.
To U13C U87C U96A A136G belongs 0.3; to U14A U85C G97C, 0.03.
To U14C A22G A65U A107U A124G U130C belongs 0.24; to U13G U102C G122A G125A, 1.17.
For the variant U13C U45G U102C U108C, the self-cleavage was determined as 1.31.
Regarding U14C A24G G48A A65G A94U A117G A136G, the self-cleavage stood at 0.
Take U13C U29A A43G U108C: the self-cleavage was 1.11.
For the variant U13C U52C G75A A107U A129G, the self-cleavage amounted to 1.4.
As to U13C U85A U115C A129G U132C, the self-cleavage came out at 0.6.
Regarding U13C U39A A78G, the self-cleavage was found to be 2.1.
For the variant U14A A43G A57C G125C, the self-cleavage came out at 0.08.
Consider U13C U62A U81A, for which the self-cleavage is 0.06.
To U13C U108A U112A belongs 1.28.
Take U14C G21A C63A A142G: the self-cleavage turned out to be 0.07.
Turning to U14C A43C U87A U132C, the self-cleavage is 0.
For U14C C28U U52C A117G A141U, the self-cleavage was 0.36.
On to U14C C18U U45C, for which the self-cleavage was found to be 1.02.
Turning to U13C U100C C113U, the self-cleavage turned out to be 1.44.
As for U14C A42G U45A, the self-cleavage was 0.
U13C U108C U130C: the self-cleavage worked out at 2.47.
To U14A G58C U104C A136G belongs 0.03.
Take U14C A50G A67G A94U: the self-cleavage stood at 0.48.
In the case of U13C U47C U100C, the self-cleavage stood at 1.84.
For U14A G48U A136G, the self-cleavage came to 1.84.
Consider U14A A22G U73G, for which the self-cleavage worked out at 0.74.
Turning to U13C U29A G44U U134C, the self-cleavage was found to be 0.92.
To U14A U20C A136G belongs 0.99.
The same measure for U13C U46A U81A: 2.29; for U14C A30U A142G: 1.01.
U14C A24G U87C: the self-cleavage is 0.51.
The same measure for U13C U73C C84A U87A G89C A142G: 0.08.
In the case of U14C A64U U104C U109A, the self-cleavage came to 0.56.
U14A U46C U115C: the self-cleavage is 1.84.
For the variant U14C A24U U87A, the self-cleavage turned out to be 0.14.
Regarding U13C U47A C71U, the self-cleavage turned out to be 0.59.
Regarding U14C A50G C68U A77G G82A, the self-cleavage is 0.11.
The same measure for U13C U108G A138U: 2.3; for U14C A117U A141U: 1.47.
For the variant U14A A79G U87A A138G, the self-cleavage worked out at 0.06.
Regarding U14A U15C U73A A79U G89A U115C, the self-cleavage was 0.12.
The same measure for U14C A42G U91C C116U: 1.1; for U14A U81A U102C: 1.78.
To U14A U15C C17U belongs 0.84.
As to U14C A59G A69G, the self-cleavage was 0.
Regarding U14C G21A A50C, the self-cleavage stood at 0.72.
In the case of U13C U39C A67U U85A, the self-cleavage was 0.12.
Take U13C U73A C99U U104C: the self-cleavage was determined as 1.73.
U14C C19U A65G U85A A138G A140G: the self-cleavage was 0.
With U14C A22G U108C A138G, the self-cleavage stood at 0.74.
The same measure for U14C C84G A92G: 0.04; for U13C U73C A78C: 0.9.
With U13C U52A A78C A129U A138G, the self-cleavage stood at 1.35.
Regarding U14A C19U U26A, the self-cleavage was found to be 1.07.
The same measure for U13C U23C A57U G72A U81G C99U A117C A138G A141G: 0.09; for U14C A22U U52A C133A: 1.03.
The same measure for U14A U45A A124G: 0.4; for U13C U26A U100G A141G: 0.67.
With U13C U62C A69G U109A, the self-cleavage amounted to 0.19.
With U14C A24U G36A, the self-cleavage is 1.15.
Regarding U13C U85C U108C U112C A138G, the self-cleavage is 0.
The same measure for U13C U96A U104A: 0.03; for U14A A65G A94G U109C: 0.
Regarding U14C A31U G48A U115C A117U A121U A138U, the self-cleavage turned out to be 1.95.
For U14C A42G A57U A69U A124U, the self-cleavage was 0.1.
To U13C U85C U134G belongs 0.2; to U13C U26C C51U, 2.09; to U13C U47A U52C A129U, 0.88.
The same measure for U14C A64G U130A: 0.21.
Turning to U14C C56A A124U, the self-cleavage turned out to be 0.04.
In the case of U14C G32A U46A A136U, the self-cleavage turned out to be 1.33.
The same measure for U14C A59G U62C A124G: 0.
Consider U13C U52C A138U, for which the self-cleavage was 2.3.
As for U13C U39C A92G, the self-cleavage is 0.
Turning to U14A A24G U45A A67G A79U U134C, the self-cleavage was found to be 0.32.
In the case of U13C U29C U47A U109A, the self-cleavage worked out at 1.69.
As to U13G U14C A78G, the self-cleavage stood at 0.88.
U14C C71A U119A: the self-cleavage is 0.17.
For U14C G32U A78G, the self-cleavage was found to be 0.88.
As to U14C A22G G144A, the self-cleavage is 1.36.
In the case of U13C U52C U132A, the self-cleavage amounted to 0.76.
For U13C U47A U52A A136G A141G, the self-cleavage came to 1.29.
To U13C U73C A121G belongs 0.57.
In the case of U13C U46C U143A, the self-cleavage was found to be 1.26.
The same measure for U13C U87A U91C A129G: 0.33; for U14A U96C A136G: 0.05; for U14A A79G U100C: 1.77.
In the case of U14A A64C U112C, the self-cleavage is 0.16.
As to U14C A92G G93A U112C A124U, the self-cleavage was determined as 0.
In the case of U14A U87A A94G, the self-cleavage turned out to be 0.04.
For U14C A24G G93A U104A A117G, the self-cleavage was 0.
As for U13C U29C A124G G125A, the self-cleavage amounted to 0.9.
For the variant U13C U52A U134C A141C, the self-cleavage is 1.44.
The same measure for U13C U45A A124U: 0.76.
For U14C A79G U96C C103U U132C, the self-cleavage was determined as 0.19.
Turning to U14A U52C U73A, the self-cleavage came to 0.96.
With U13C U132C A142G, the self-cleavage is 1.49.
To U13C U96C U100C U130C belongs 0.33; to U14C C28U A65G U96A, 0.31; to U14C A67G U109A, 0.84.
To U13C U26C U52A U102C A136G belongs 0.77; to U14A A67G A138G, 0.44.
As to U13C U62A U87C, the self-cleavage was found to be 0.17.
Turning to U14C A42G A65G, the self-cleavage stood at 0.22.
In the case of U13C U45C A57U C63A, the self-cleavage was 0.11.
The same measure for U14A G53U A64G U119C: 0.11.
To U13C U119A A138G belongs 0.35; to U14C A59G G82A, 0.08.
With U13C U46C U130C, the self-cleavage came out at 1.5.
In the case of U14C A67U U130C, the self-cleavage was 0.2.
For the variant U14A C68U U108C, the self-cleavage amounted to 0.41.
With U14A A64U U112C, the self-cleavage was found to be 0.38.
Turning to U14C C98U C103U C133A, the self-cleavage came out at 0.39.
The same measure for U14A A77G A78C: 0.8; for U13C U52C A117U A140G: 0.88.
In the case of U13C U115A A129G U130C A138G, the self-cleavage was 0.
Turning to U14C C51U A57U A59G C84U U134C A141G, the self-cleavage was determined as 0.05.
